According to PubChem BioAssay AID1240 (Sanford-Burnham Center for Chemical Genomics, 2008):
The whole screen tested about 50,000 compounds, of which about 800 (1.6%) showed an effect of 50% or more. The list shows a part of the results.

Each molecule was assayed against Bcl-2-like protein 10 (Homo sapiens) (UniProt Q9HD36) (assay: TR3 peptide-Bcl-B binding displacers, biochemical primary FP assay, phenotype converters (AID 1240;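 further: 0% = Bcl-B with tracer peptide and DMSO and 100% = tracer peptide lacking Bcl-B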)). Conditions: GST-Bcl-B / FITC-TR3 peptide fluorescence polarization; stronger effect = higher value; compound at 3.75 mg/L.
UniProt Q9HD36, sequence (Q9HD36 whole entry, looked up): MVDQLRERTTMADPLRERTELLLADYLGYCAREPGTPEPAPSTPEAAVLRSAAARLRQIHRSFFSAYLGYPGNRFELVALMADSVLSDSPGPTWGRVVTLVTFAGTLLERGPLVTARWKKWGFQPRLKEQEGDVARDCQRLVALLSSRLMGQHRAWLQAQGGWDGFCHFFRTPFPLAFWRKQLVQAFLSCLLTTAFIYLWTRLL

SMILES	displacement [%]
CC1(C)CCC[C@@]2(C)C1CC[C@@]1(C)OC(=O)CC21 (some centres not stated)	14.7
CC(C)COc1ccc(C(=O)N2c3ccccc3CC2C)cc1 (configuration not stated)	-8.5
CCOC(=O)c1ccccc1N1C(=O)C=CC1=O	-6
COc1ccc(NC(=O)C2CCCN(Cc3ccccc3)C2)cc1OC1CCCC1 (configuration not stated)	-3.9
O=C(NCCN1CCN(C(=O)c2ccc(Br)cc2)CC1)C(=O)Nc1ccccc1	15.3
Cn1c(=O)c2c([nH]c(=S)n2Cc2ccc(Cl)c(Cl)c2)n(C)c1=O	-21.9
Cc1cc(Cl)ccc1OC(C)C(=O)N1CCN(c2cccc(Cl)c2)CC1 (configuration not stated)	-4.9
Cc1c(/C=C2\C(=O)NC(=O)N(c3ccc(Cl)cc3)C2=O)c2ccccc2n1C	104
Cc1cc(C)nc(SCC(=O)Nc2ccccc2C)n1	-5.7
NCCNc1ccc(C(F)(F)F)cc1[N+](=O)[O-]	-5.7
COn1c(C)c(C)c2c3nonc3ccc21	2.5
Nc1nc(SCc2ccc(Cl)c(Cl)c2)nc2sc3c(c12)CCC3	-8.9
CCOC(=O)C1=C(C)NC(C)=C(C(=O)OCC)C1c1ccc(OCC(N)=O)cc1	8.5
Nc1ccc2nc(SCC(=O)c3ccc(-c4ccccc4)cc3)sc2c1	-9.1
CCOc1cc(C2C3=C(CC(C)(C)CC3=O)Nc3ccccc3N2C(C)=O)ccc1O (configuration not stated)	4.9
Cc1[nH]c2ccccc2c1/C=C(\C#N)C(=O)NCc1ccco1	3.9
O=C(N/N=C/c1ccc(Cl)c(Cl)c1)c1cc(-c2ccccc2)n[nH]1	-12.9
Cc1cc(Cl)cc(C)c1OCCCCNCCO	-8
Fc1ccc(COc2ccccc2/C=N/n2cnnc2)cc1	-9.5
COc1cccc(CN2CCN(C(=O)c3ccc(-c4ccccc4)cc3)CC2)c1	-5
CCCC(=O)Nc1cccc(NC(=O)c2cc3ccccc3o2)c1	2.3
O=C(CSCC(=O)Nc1ccccc1-c1ccccc1)Nc1ccccc1	0.4

SMILES	displacement [%]
CC12CC3(C)CC(C)(C1)CC(C(=O)NN)(C2)C3	0.3
COC(=O)C1=C(C)NC2=C(C(=O)c3ccccc32)C1c1ccc(OCc2ccc(Cl)cc2Cl)cc1 (configuration not stated)	9.7
COc1ccccc1N1CCN(C(=O)CN(c2ccc(C)cc2)S(C)(=O)=O)CC1	1.6
O=[N+]([O-])c1ccc(N2CCOCC2)cc1NCCc1ccccc1	10.4
CC1=C(C(=O)OCc2ccccc2)C(c2ccc(O)c([N+](=O)[O-])c2)C2=C(CC(c3ccccc3)CC2=O)N1 (configuration not stated)	-2.3
CS(=O)(=O)N(CC(=O)N1CCOCC1)c1ccc(Br)cc1	0.5
CCOc1ccc(/C=C2\C(=O)NC(=S)N(c3ccc(Br)cc3)C2=O)cc1Cl	10.7
Cc1ccc(NC(=O)C(C)N2C(=O)c3ccccc3C2=O)cc1C (configuration not stated)	-6.1
Cc1ccc2nc(Nc3nc(C)cc(C)n3)[nH]c2c1	-2
CC(C)c1ccc(/C=C(\NC(=O)c2ccccc2)C(=O)NC2CCS(=O)(=O)C2)cc1 (configuration not stated)	23
COC(=O)C(=C/C=C/N(C)C)C(=O)OC	4.9
O=C1CC(N2CCCC2)C(=O)N1c1ccc(F)cc1 (configuration not stated)	3.2
Cc1nn(CC(=O)Nc2c(F)cc(F)cc2Br)c(C)c1[N+](=O)[O-]	-2.8
Cc1ccccc1NC(=O)/C(=C\c1c[nH]c2ccccc12)NC(=O)c1ccccc1	3.2
CC(CC(=O)c1ccc(Cl)cc1)CC(=O)c1ccc(Cl)cc1	-0.9
COc1ccc(N2C(=O)CC(N3CCC(Cc4ccccc4)CC3)C2=O)cc1 (configuration not stated)	8.8
O=C(CSc1nc2ccccc2[nH]1)c1ccc2ccccc2c1	-15.9
COc1ccc(/C(N)=N/OC(=O)c2cccc(C)c2)cc1	3
CCCCCCCCC(=O)N/N=C/c1ccc(Cl)cc1	1.8
CCOc1cccc(=Nc2ccc(NC(C)=O)cc2)c2c(C)oc(C)c12	28.8
CCOC(=O)C(=CNCCCC(=O)O)C(=O)OCC	-2
NS(=O)(=O)c1ccc(-c2ccc(/C=C3/C(=O)NN(c4ccc(Br)cc4)C3=O)o2)cc1	20.8

SMILES	displacement [%]
COc1ccccc1/C=C1\SC(=S)N(C(C(=O)O)C(C)C)C1=O (configuration not stated)	5.8
COc1ccc(C(=O)Nc2ccc(S(=O)(=O)N3CCCCC3)cc2)cc1OC	6.3
CC1=C(C(=O)OCCCc2ccccc2)C(c2cccs2)NC(=O)N1 (configuration not stated)	-11.3
CCOc1ccc(-c2nnc(NC(=O)Nc3ccc(Cl)c(Cl)c3)s2)cc1	13.5
CCOc1ccc(C(=O)Nc2cccc3nsnc23)cc1[N+](=O)[O-]	10.7
COc1cc(OC)cc(C(=O)N2CCN(Cc3cccc([N+](=O)[O-])c3)CC2)c1	-8.2
Nc1nnc(COc2ccc(Cl)cc2)s1	-1.8
CSc1ccccc1NC(=O)c1cccc(Br)c1	-6.6
O=C1C(=O)N(CC2CCCO2)C(c2cccc([N+](=O)[O-])c2)/C1=C(/O)c1ccccc1 (configuration not stated)	-20
Oc1ccccc1N=Cc1c(O)c(I)cc2oc3c(c12)CCCC3	130
Cc1cccc(OCC(=O)N/N=C/c2c3ccccc3cc3ccccc23)c1	3.1
Cc1nc(N)sc1C(=O)N/N=C/c1ccco1	-1.9
O=C(CSc1ccc(Cl)cc1Cl)Nc1ccc(Br)cc1	12
O=C(Nc1cccc(Cl)c1)c1ccc(C(=O)Nc2cccc(Cl)c2)cc1	2.7
N#Cc1c(NC(=O)c2cc(S(=O)(=O)N3CCOCC3)c(Cl)cc2Cl)sc2c1CCCC2	1.4
O=C(CSc1cc(Cl)ccc1Cl)Nc1ccccc1[N+](=O)[O-]	11.1
O=[N+]([O-])c1ccc(OCC(O)Cn2cnc3ccccc32)cc1 (configuration not stated)	-1.7
O=C(c1cc2nc(-c3ccccc3)cc(C(F)(F)F)n2n1)N1CCCCC1	-7.4
COc1ccc(NC(=O)C(=O)N/N=C/c2cccc(OC)c2O)cc1	-8.3
CC1(C)CC(=O)C2=C(C1)OC1=C(C(=O)CC(C)(C)C1)C21C(=O)Nc2ccccc21	10.4
CCOC(=O)c1c(-c2cc(C)ccc2C)csc1NC(=O)c1c(F)cccc1F	-4.9
Cn1c(SCC(=O)NCc2ccco2)nc2ccccc21	-16.9

SMILES	displacement [%]
CC(C)C(=O)Nc1ccc2oc3ccccc3c2c1	2.9
Cc1ccc(-n2c(=O)c3c4c(sc3n3cnnc23)COC(C)(C)C4)cc1	-1.3
O=C(COc1ccc(Br)cc1)Nc1cccc2nsnc12	1.9
Cc1onc(-c2ccccc2Cl)c1C(=O)Nc1nn[nH]n1	-6.5
CCOC(=O)C1=C(C)N(CCOC)C(=O)/C1=C\c1ccc(O)c(OCC)c1	7.8
Cc1oc2ccc(OC(=O)c3ccc([N+](=O)[O-])cc3)cc2c1C(=O)OC(C)C	8.3
O=C(CN1C(=O)/C(=C/c2ccccc2Cl)SC1=S)Nc1cccc(O)c1	-10.5
CCOC(=O)NC12CC3CC(C)(CC(C)(C3)C1)C2	4.3
O=C1c2cccc3cccc(c23)C(=O)N1CCC(=O)n1nnc2ccccc21	7.6
COc1ccc(CN2CCN(Cc3c[nH]c4ccccc34)CC2)cc1	-1.7
CCCOc1cccc(C(=O)Nc2scc(-c3ccccc3)c2C(=O)OC(C)C)c1	-6.4
CN(CCC(=O)NC1CC(C)(C)N(C)C(C)(C)C1)C1CC(C)(C)N(C)C(C)(C)C1	-3.5
CC(=O)Oc1ccc2c(C)cc(=O)oc2c1I	-1.7
O=C(Nc1ccc2c(c1)OCO2)c1cccc(I)c1	8.9
O=C1/C(=C/c2ccc(-c3ccccc3[N+](=O)[O-])o2)SC(=S)N1c1cccc(C(F)(F)F)c1	-3
COc1cccc(-n2c(O)c(C=Nc3ccccc3F)c(=O)[nH]c2=O)c1	-18.9
COc1ccc(S(=O)(=O)N2CCN(Cc3ccc(OC)c(OC)c3)CC2)cc1	-2.2
CC(C)(C)NC(=O)c1cccc(N2C(=O)c3cccc([N+](=O)[O-])c3C2=O)c1	-12.5
COc1cc(/C=N/NC(=O)CCNc2n[nH]c(=O)[nH]c2=O)cc(Br)c1O	8.1
Cc1ccc(-c2nc3ccccc3o2)cc1NC(=S)NC(=O)/C=C/c1ccccc1	0.3
O=C(/C=C/c1ccccc1)N1CCN(Cc2ccc3c(c2)OCO3)CC1	5.2
COc1ccc(Cl)cc1C(=O)Nc1ccncc1	7.9

SMILES	displacement [%]
CC(C)CNC(=O)C1CN(S(=O)(=O)c2ccccc2)CCN1S(=O)(=O)c1ccccc1 (configuration not stated)	4.4
O=C1CSC(c2cn(-c3ccccc3)nc2-c2ccccc2)N1Cc1ccc(Cl)cc1 (configuration not stated)	-7.2
Cn1ccc(=O)c2cc(Br)ccc21	11.9
COc1ccc(CCNC(=O)C(=O)NCc2ccncc2)cc1	11.7
Cc1ccc2nc(-c3ccc(NC(=O)COc4ccc([N+](=O)[O-])cc4)cc3)sc2c1	6.3
O=C1c2ccc(-c3ccc4c(c3)C(=O)N(c3ccccn3)C4=O)cc2C(=O)N1c1ccccn1	3.9
C/C(=N\N1CCN(Cc2cccc3ccccc23)CC1)c1cccs1	-7.4
CCOc1ccccc1NC(=O)COc1c(C)cc(C)cc1C	10.7
O=C1CC(c2ccccc2)CC2=C1C(c1ccc([N+](=O)[O-])cc1)Nc1ccc(C(=O)c3ccccc3)cc1N2 (configuration not stated)	7.7
COc1ccc(-n2nc3cc(C)c(NC(=O)COc4ccc(Cl)cc4Cl)cc3n2)cc1	2.4
c1ccc(CNc2ccc(-c3nc4ccccc4o3)cc2)cc1	1.2
COc1cccc(OCCOCCN2CCN(C)CC2)c1	-3.9
O=C(Nc1cccc([N+](=O)[O-])c1)c1ccc(-c2ccc(Cl)cc2)o1	9
CC(=O)NC1=NN(C(C)=O)C(c2ccccc2OC(C)=O)S1 (configuration not stated)	-0.9
Cc1ccc(C(=O)Nc2ccc(N3CCOCC3)cc2)cc1C	0.3
COC(=O)C1=C(C)N(Cc2ccccc2)C(=O)/C1=C\c1cccs1	6.6
COC(=O)c1c(C)oc2ccc(OC(=O)c3c(C)oc4ccc(OC(C)=O)cc34)cc12	11.7
COC(=O)C1=C(C)N(C)C(C)=C(C(=O)OC)C1c1ccccc1Cl	-4.2
COC(=O)/C(=C/C(=O)c1ccc(C)cc1)Nc1ccc(Br)cc1	-4.8
